Our source for the cAMP reporter score and surface expression score values is the GPR68 mutational scans of Howard et al. (2025).

To fix the notation:
B1: GPR68, Q15743 (parent)
chain: MGNITADNSSMSCTIDHTIHQTLAPVVYVTVLVVGFPANCLSLYFGYLQIKARNELGVYLCNLTVADLFYICSLPFWLQYVLQHDNWSHGDLSCQVCGILLYENIYISVGFLCCISVDRYLAVAHPFRFHQFRTLKAAVGVSVVIWAKELLTSIYFLMHEEVIEDENQHRVCFEHYPIQAWQRAINYYRFLVGFLFPICLLLASYQGILRAVRRSHGTQKSRKDQIQRLVLSTVVIFLACFLPYHVLLLVRSVWEASCDFAKGVFNAYHFSLLLTSFNCVADPVLYCFVSETTHRDLARLRGACLAFLTCSRTGRAREAYPLGAPEASGKSGAQGEEPELLTKLHPAFQTPNSPGSGGFPTGRLA

Scores whose standard error is large were omitted. Two further conditions of the source, in which the scores hardly spread, are not listed. Read del as a deletion of the residues named and ins as an insertion between two positions. For some assays here: The data file names ogerin without a concentration.

The variants in data set [1] derive from B1. The data set can be described thus: cAMP reporter score (Enrich2 score, wild type = 0); higher = more signal; HEK293T, FACS bins.
In data set [2] the parent is B1. Kind of data set: surface expression score (Enrich2 score, wild type = 0); higher = more signal; HEK293T, FACS bins.

For the variant Y268_H269insG, the cAMP reporter score in data set [1] (pH 5.5) was -1.71; in data set [1] (pH 6), -1.6; in data set [1] (pH 6, modulator: ogerin) it was -2; in data set [1] (pH 6.5, modulator: ogerin), -0.934. Moreover, the surface expression score in data set [2] is -2.21.
Take D282del: the cAMP reporter score in data set [1] (pH 5.5) is -1.52; in data set [1] (pH 6) it was -1.13; in data set [1] (pH 6, modulator: ogerin), -1.1; in data set [1] (pH 6.5, modulator: ogerin), -0.861. In addition, the surface expression score in data set [2] was -0.985.
The corresponding values for F260_A261insGSG are -1.09, -1.64, -1.19, -1.47 and -1.43.
Turning to K262_G263insG, the cAMP reporter score is -1.14 in data set [1] (pH 5.5); -0.156 in data set [1] (pH 6); -1.52 in data set [1] (pH 6, modulator: ogerin); -1.95 in data set [1] (pH 6.5, modulator: ogerin). The surface expression score in data set [2] was -0.868.
For the variant F277_N278insG, the cAMP reporter score is -1.71 in data set [1] (pH 5.5); -1.56 in data set [1] (pH 6); -2.35 in data set [1] (pH 6, modulator: ogerin); -1.14 in data set [1] (pH 6.5, modulator: ogerin). Moreover, the surface expression score in data set [2] was -2.35.
For V284E, the cAMP reporter score in data set [1] (pH 5.5) was -0.9; in data set [1] (pH 6) it was -1.21; in data set [1] (pH 6, modulator: ogerin) it was -1.85; in data set [1] (pH 6.5, modulator: ogerin), -1.43. For the same variant, the surface expression score in data set [2] is -2.6.
As to V284A, the cAMP reporter score in data set [1] (pH 5.5) is -0.548; in data set [1] (pH 6, modulator: ogerin), -0.057; in data set [1] (pH 6.5, modulator: ogerin), -0.986. For the same variant, the surface expression score in data set [2] was -0.137.
Regarding V284C, the cAMP reporter score in data set [1] (pH 5.5) was found to be 0.639; in data set [1] (pH 6), 0.489; in data set [1] (pH 6, modulator: ogerin) it was 0.307; in data set [1] (pH 6.5, modulator: ogerin), 0.588. In addition, the surface expression score in data set [2] turned out to be 0.024.
For V284D, in that order: -1.98, -1.16, -0.309, -0.889 and -1.99.
Take V284F: the cAMP reporter score was determined as 1.23 in data set [1] (pH 5.5); 2.22 in data set [1] (pH 6); 0.503 in data set [1] (pH 6, modulator: ogerin); 2.04 in data set [1] (pH 6.5, modulator: ogerin). For the same variant, the surface expression score in data set [2] came out at 0.851.
Consider V284H, for which the cAMP reporter score in data set [1] (pH 5.5) is -1.19; in data set [1] (pH 6, modulator: ogerin), -1.01; in data set [1] (pH 6.5, modulator: ogerin) it was -1.83. The surface expression score in data set [2] was -1.61.
For the variant V284G, the cAMP reporter score in data set [1] (pH 5.5) is -0.963; in data set [1] (pH 6) it was -0.876; in data set [1] (pH 6, modulator: ogerin) it was -1.84; in data set [1] (pH 6.5, modulator: ogerin) it was -0.869. For the same variant, the surface expression score in data set [2] was -1.24.
As for L273R, the cAMP reporter score in data set [1] (pH 5.5) is -1.43; in data set [1] (pH 6), -0.354; in data set [1] (pH 6, modulator: ogerin) it was -1.39; in data set [1] (pH 6.5, modulator: ogerin), -1.41. In data set [2], the surface expression score was -0.812.
For L273Q, in that order: -0.899, -0.512, -1.66, -0.763 and -1.68.
Consider L273M, for which the cAMP reporter score in data set [1] (pH 5.5) came to 0.914; in data set [1] (pH 6), 0.098; in data set [1] (pH 6, modulator: ogerin) it was 0.682; in data set [1] (pH 6.5, modulator: ogerin), 0.077. Moreover, in data set [2], the surface expression score was determined as 0.298.
Turning to L273V, the cAMP reporter score in data set [1] (pH 5.5) is -1.29; in data set [1] (pH 6, modulator: ogerin), -0.195; in data set [1] (pH 6.5, modulator: ogerin), -0.481. The surface expression score in data set [2] is -0.731.
Regarding L273H, the cAMP reporter score in data set [1] (pH 5.5) was -1.68; in data set [1] (pH 6) it was -0.36; in data set [1] (pH 6, modulator: ogerin), -1.99; in data set [1] (pH 6.5, modulator: ogerin), -1.14. For the same variant, the surface expression score in data set [2] is -1.79.
Regarding L273I, the cAMP reporter score turned out to be 0.285 in data set [1] (pH 5.5) and 0.115 in data set [1] (pH 6.5, modulator: ogerin). In addition, in data set [2], the surface expression score is -0.198.
Take L273D: the cAMP reporter score in data set [1] (pH 5.5) was -1.5; in data set [1] (pH 6), -0.989; in data set [1] (pH 6, modulator: ogerin) it was -2.66; in data set [1] (pH 6.5, modulator: ogerin) it was -1.32. In data set [2], the surface expression score is -2.7.
For L273Y, in that order: -0.991, -1.66, 0.072, -0.683 and 0.261.
With L273C, the cAMP reporter score in data set [1] (pH 5.5) is -0.134; in data set [1] (pH 6), -1.24; in data set [1] (pH 6, modulator: ogerin) it was -1.46; in data set [1] (pH 6.5, modulator: ogerin), -0.076. Further, the surface expression score in data set [2] was -1.03.
Take L273T: the cAMP reporter score was -1.72 in data set [1] (pH 5.5); -0.282 in data set [1] (pH 6); -1.2 in data set [1] (pH 6, modulator: ogerin); -0.989 in data set [1] (pH 6.5, modulator: ogerin). Moreover, the surface expression score in data set [2] was -1.82.
On to L273W, for which the cAMP reporter score in data set [1] (pH 5.5) is -0.37; in data set [1] (pH 6.5, modulator: ogerin), -1.13. Moreover, the surface expression score in data set [2] is -0.225.
In the case of L273A, the cAMP reporter score in data set [1] (pH 5.5) was -1.14; in data set [1] (pH 6, modulator: ogerin), -1.26. Also, the surface expression score in data set [2] is -0.595.
As to L273E, the cAMP reporter score in data set [1] (pH 5.5) was -0.904; in data set [1] (pH 6) it was -0.866. The surface expression score in data set [2] was -1.3.
With L273P, the cAMP reporter score in data set [1] (pH 5.5) was -2.21; in data set [1] (pH 6) it was -1.76; in data set [1] (pH 6, modulator: ogerin) it was -1.2; in data set [1] (pH 6.5, modulator: ogerin), -0.789. Moreover, the surface expression score in data set [2] was -2.31.
Regarding L273S, the cAMP reporter score in data set [1] (pH 5.5) was -0.67; in data set [1] (pH 6), -1.16; in data set [1] (pH 6, modulator: ogerin), -1.31; in data set [1] (pH 6.5, modulator: ogerin) it was -0.313. For the same variant, in data set [2], the surface expression score was -1.98.
L273F: the cAMP reporter score is 0.03 in data set [1] (pH 5.5); -0.711 in data set [1] (pH 6); -0.645 in data set [1] (pH 6, modulator: ogerin); -0.34 in data set [1] (pH 6.5, modulator: ogerin). In addition, in data set [2], the surface expression score was -0.387.
Take L273G: the cAMP reporter score in data set [1] (pH 5.5) was -1.36; in data set [1] (pH 6), -1.13; in data set [1] (pH 6, modulator: ogerin) it was -0.957; in data set [1] (pH 6.5, modulator: ogerin) it was -0.584. The surface expression score in data set [2] is -2.11.
Take L273N: the cAMP reporter score in data set [1] (pH 5.5) is -1.44; in data set [1] (pH 6) it was -0.447; in data set [1] (pH 6, modulator: ogerin) it was -1.9; in data set [1] (pH 6.5, modulator: ogerin), -0.92. Besides, the surface expression score in data set [2] was -2.13.
L273K: the cAMP reporter score in data set [1] (pH 5.5) was -1.16; in data set [1] (pH 6), -0.793; in data set [1] (pH 6, modulator: ogerin), -1.73; in data set [1] (pH 6.5, modulator: ogerin), -1.7. The surface expression score in data set [2] is -2.7.
As to P283_L285del, the cAMP reporter score in data set [1] (pH 5.5) was -1.4; in data set [1] (pH 6), -1.46; in data set [1] (pH 6, modulator: ogerin), -1.74; in data set [1] (pH 6.5, modulator: ogerin) it was -1.29. For the same variant, the surface expression score in data set [2] is -2.18.
